# Test results taken from the supplement of paper PMC8728848.
# The list shows a part of the results.
# B1: Surfactant Protein D (Human); Neck + Carbohydrate Recognition Domain (NCRD) (Homo sapiens) (protein)
# chain: MLLFLLSALVLLTQPLGYLEAEMKTYSHRTMPSACTLVMCSSVESGLPGRDRDGREGPRGEKGDPGLPGAAGQAGMPGQAGPVGPKGDNGSVGEPGPKGDTGPSGPPGPPGVPGPAGREGALGKQGNIGPQGKPGPKGEAGPKGEVGAPGMQGSAGARGLAGPKGERGVPGERGVPGNTGAAGSAGAMGPQGSPGARGPPGLKGDKGIPGDKGAKGESGLPDVASLRQQVEALQGQVQHLQAAFSQYKKVELFPNGQSVGEKIFKTAQFVKPFTEAQLLCTQAGGQLASPRSAAENAALQQLVVAKNEAAFLSMTDSKTEGKFTYPTGESLVYSNWAPGEPNDDGGSEDCVEIFTNGKWNDRACGEKALVVCEF
# Experiments:
# Assay in all cases: glycan array binding signal (z-score within array); higher = stronger binding
# Conditions in all cases: glycan notation: IUPAC condensed, linker removed; mutation: R349A
# [1] = molecular target: GalNAc(b1-3)GalNAc
# Summary of the method: (§1)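 Arrays were curated from the Consortium for Functional Glycomics database, 3228 in total, and kept only where the protein sequence was available. Binding is expressed as a within-array Z-score. This score was averaged across arrays of the same protein sequence at different concentrations or buffers and across linkers, and negative values can be read as non-binding.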
# [2] = molecular target: GalNAc(b1-4)GlcNAc
# Summary of the method: as §1
# [3] = molecular target: Glc(a1-4)Glc
# Summary of the method: as §1
# [4] = molecular target: Glc(a1-6)Glc(a1-6)Glc
# Summary of the method: as §1
# [5] = molecular target: Glc(b1-4)Glc
# Summary of the method: as §1
# [6] = molecular target: Glc(b1-6)Glc
# Summary of the method: as §1
# [7] = molecular target: GlcA(b1-3)Gal
# Summary of the method: as §1
# [8] = molecular target: GlcA(b1-3)GlcNAc
# Summary of the method: as §1
# [9] = molecular target: GlcA(b1-6)Gal
# Summary of the method: as §1
# [10] = molecular target: GlcNAc(a1-3)Gal(b1-4)GlcNAc
# Summary of the method: as §1
# [11] = molecular target: GlcNAc(a1-6)Gal(b1-4)GlcNAc
# Summary of the method: as §1
# [12] = molecular target: GlcNAc(b1-2)Gal(b1-3)GalNAc
# Summary of the method: as §1
# [13] = molecular target: GlcNAc(b1-2)Man(a1-3)[GlcNAc(b1-2)Man(a1-6)]Man(b1-4)GlcNAc(b1-4)GlcNAc
# Summary of the method: as §1
# [14] = molecular target: GlcNAc(b1-3)Gal
# Summary of the method: as §1
# [15] = molecular target: GlcNAc(b1-3)Gal(b1-3)GalNAc
# Summary of the method: as §1
# [16] = molecular target: GlcNAc(b1-3)Gal(b1-4)Glc
# Summary of the method: as §1
# [17] = molecular target: GlcNAc(b1-3)Gal(b1-4)GlcNAc
# Summary of the method: as §1
# [18] = molecular target: GlcNAc(b1-3)Gal(b1-4)GlcNAc(b1-3)Gal(b1-4)GlcNAc
# Summary of the method: as §1
# [19] = molecular target: GlcNAc(b1-3)GalNAc
# Summary of the method: as §1
# [20] = molecular target: GlcNAc(b1-3)Man
# Summary of the method: as §1
# [21] = molecular target: GlcNAc(b1-3)[GlcNAc(b1-4)][GlcNAc(b1-6)]GlcNAc
# Summary of the method: as §1
# [22] = molecular target: GlcNAc(b1-3)[GlcNAc(b1-6)]Gal(b1-4)GlcNAc
# Summary of the method: as §1
# [23] = molecular target: GlcNAc(b1-3)[GlcNAc(b1-6)]GalNAc
# Summary of the method: as §1
# [24] = molecular target: GlcNAc(b1-4)Gal(b1-4)GlcNAc
# Summary of the method: as §1
# [25] = molecular target: GlcNAc(b1-4)GlcNAc
# Summary of the method: as §1
# [26] = molecular target: GlcNAc(b1-4)GlcNAc(b1-4)GlcNAc
# Summary of the method: as §1
# [27] = molecular target: GlcNAc(b1-4)GlcNAc(b1-4)GlcNAc(b1-4)GlcNAc(b1-4)GlcNAc
# Summary of the method: as §1
# [28] = molecular target: GlcNAc(b1-4)GlcNAc(b1-4)GlcNAc(b1-4)GlcNAc(b1-4)GlcNAc(b1-4)GlcNAc
# Summary of the method: as §1
# [29] = molecular target: GlcNAc(b1-4)[GlcNAc(b1-6)]GalNAc
# Summary of the method: as §1
binder,measurement,setting,value
B1,glycan array binding signal (z-score),[1],-0.721
same,glycan array binding signal (z-score),[2],-0.457
same,glycan array binding signal (z-score),[3],-0.583
same,glycan array binding signal (z-score),[4],-0.774
same,glycan array binding signal (z-score),[5],-0.825
same,glycan array binding signal (z-score),[6],0.27
same,glycan array binding signal (z-score),[7],-0.179
same,glycan array binding signal (z-score),[8],-0.534
same,glycan array binding signal (z-score),[9],-0.166
same,glycan array binding signal (z-score),[10],-0.557
same,glycan array binding signal (z-score),[11],-0.518
same,glycan array binding signal (z-score),[12],-0.928
same,glycan array binding signal (z-score),[13],-0.653
same,glycan array binding signal (z-score),[14],-0.71
same,glycan array binding signal (z-score),[15],-0.31
same,glycan array binding signal (z-score),[16],-0.831
same,glycan array binding signal (z-score),[17],-0.548
same,glycan array binding signal (z-score),[18],-0.303
same,glycan array binding signal (z-score),[19],-0.265
same,glycan array binding signal (z-score),[20],0.054
same,glycan array binding signal (z-score),[21],-0.767
same,glycan array binding signal (z-score),[22],-0.364
same,glycan array binding signal (z-score),[23],-0.694
same,glycan array binding signal (z-score),[24],-0.439
same,glycan array binding signal (z-score),[25],-0.562
same,glycan array binding signal (z-score),[26],3.19
same,glycan array binding signal (z-score),[27],0.258
same,glycan array binding signal (z-score),[28],0.473
same,glycan array binding signal (z-score),[29],-0.577
